Experimental findings from US20180280527A1 (COVAGEN, published 2018) are described below.

Where “and” joins values, the source holds several entries; their conditions need not be identical. Equal entries are not always repeated.

A word on the EC50: it is the concentration needed to bring the measured effect to its halfway point. A low value points to greater potency.

Test [1] deals with T1, huFGFR3 on KMS-11 cells (human, UniProt P22607 23-806).
T1 chain: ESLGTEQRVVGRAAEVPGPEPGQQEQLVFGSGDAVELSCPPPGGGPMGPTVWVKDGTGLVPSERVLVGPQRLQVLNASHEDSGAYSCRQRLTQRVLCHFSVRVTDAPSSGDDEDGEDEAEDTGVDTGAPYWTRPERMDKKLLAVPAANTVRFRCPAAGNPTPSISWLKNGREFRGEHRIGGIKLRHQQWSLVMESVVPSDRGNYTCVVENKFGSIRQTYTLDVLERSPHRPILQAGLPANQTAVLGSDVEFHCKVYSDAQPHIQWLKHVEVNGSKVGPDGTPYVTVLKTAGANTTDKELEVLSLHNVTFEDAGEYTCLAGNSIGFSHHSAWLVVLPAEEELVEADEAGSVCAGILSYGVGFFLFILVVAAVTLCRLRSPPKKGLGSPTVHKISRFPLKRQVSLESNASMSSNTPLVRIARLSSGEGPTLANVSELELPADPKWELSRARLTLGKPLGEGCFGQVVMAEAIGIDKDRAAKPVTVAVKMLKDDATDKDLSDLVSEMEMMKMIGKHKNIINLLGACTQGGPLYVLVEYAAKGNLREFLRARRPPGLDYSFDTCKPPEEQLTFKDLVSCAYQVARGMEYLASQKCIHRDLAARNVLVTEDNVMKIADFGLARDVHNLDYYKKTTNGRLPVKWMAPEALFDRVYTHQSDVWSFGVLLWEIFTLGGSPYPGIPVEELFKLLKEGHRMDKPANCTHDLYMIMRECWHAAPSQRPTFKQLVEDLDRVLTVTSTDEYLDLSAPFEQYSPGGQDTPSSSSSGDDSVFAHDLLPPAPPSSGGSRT
Put plainly: cell-based or functional assay.

A further test deals with T2, huD2-Fc (human).
T2 construct: Whole entry as named; also called huFGFR3-D2; domain 2 of human FGFR3
Nature of the test: ELISA, antigen coated at 5 ug/ml, detection via 9E10. On the procedure: (§1) Different antigens were coated on the plate (Maxisorp plate; Nunc 439454): huFGFR3b-Fc (SEQ ID NO: 12), huFGFR3c-Fc (SEQ ID NO: 13), cyFGFR3c-Fc (SEQ ID NO: 14), muFGFR3c-His (SEQ ID NO: 15), huD1-Fc (SEQ ID NO: 16), huD2-Fc (SEQ ID NO: 17), huD1-D2-Fc (SEQ ID NO: 18). [0166] The plate was coated with 100 ul antigen at 5 μg/ml (0.5 μg/well), and incubated at 4° C. overnight. The wells were washed 3× with PBS before being blocked with 200 μl 4% MPBS for 1 hr at RT. The wells were washed again, and 20 μl 10% MPBS containing 15 μg/ml 9E10 was added, before the addition of 80 μl Fynomer at 250 nM (200 nM final Fynomer concentration). The wells were incubated for 45 min at RT, before washing and the addition of 100 μl anti-mouse IgG-HRP (Sigma A2554) diluted 1:1000 in 2% MPBS. The wells were incubated for 30 min at RT, before washing 3× with 0.1% Tween-20 in PBS, and then 3× PBS. 100 μl BM POD Blue substrate (Roche 11 484 281 001) was added to each well followed by 50 μl 1M H₂SO₄ to stop the reaction. The absorbance 450 nm-650 nm was recorded using a Tecan M1000 instrument.
For orientation: In an ELISA, binding on a coated surface is turned into a signal by an enzyme label.

The target in another test is T3, huD1-Fc (human).
T3 construct: Whole entry as named; also called huFGFR3-D1; hFGFR3-D1
The test is described as above. As for the experimental part:
as §1

Test [2] addresses T1, huFGFR3 on KMS-11 cells. Nature of the test: flow cytometry on FGFR3-positive KMS-11 cells, Fynomer cross-linked with 9E10. In general terms: In flow cytometry, cells or beads pass a laser one at a time.
For test [3], the target named is T4, muFGFR3c-His (murine, UniProt Q61851 33-369).
T4 construct: Whole entry as named; also called murine FGFR3 splice variant c
T4 sequence: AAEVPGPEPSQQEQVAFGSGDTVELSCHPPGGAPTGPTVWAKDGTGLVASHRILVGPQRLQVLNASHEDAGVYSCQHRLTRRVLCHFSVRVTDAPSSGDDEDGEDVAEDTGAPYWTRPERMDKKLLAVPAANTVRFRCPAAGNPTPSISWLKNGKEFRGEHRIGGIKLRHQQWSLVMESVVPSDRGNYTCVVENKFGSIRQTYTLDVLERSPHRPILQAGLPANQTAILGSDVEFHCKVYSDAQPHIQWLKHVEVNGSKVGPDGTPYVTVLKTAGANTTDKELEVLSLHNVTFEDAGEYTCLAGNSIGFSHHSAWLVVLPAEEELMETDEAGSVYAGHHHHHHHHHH
Nature of the test: ELISA on coated muFGFR3c-His, 200 nM Fynomer. As for the experimental part: as §1

Test [4] has as its target T5, huD1-D2-Fc (human).
T5 construct: Whole entry as named; also called huFGFR3-D1D2; domain 1 and domain 2 of human FGFR3
Put plainly: ELISA on coated huD1-D2-Fc, 200 nM Fynomer. As for the experimental part:
as §1

The target in test [5] is T5, huD1-D2-Fc. Put plainly: specificity ELISA.
For test [6], the target named is T4, muFGFR3c-His. Put plainly: specificity ELISA.
In test [7] the target is T1, huFGFR3 on KMS-11 cells. Put plainly: flow cytometry, binding to FGFR3+ KMS-11 cells.
Test [8] deals with T1, huFGFR3 on KMS-11 cells. Put plainly: cell-based or functional assay.

B1: FF44L65G12 (designed binder)
chain: GVTLFVALYDYEVYGPTPMLSFHKGEKFQILRGGQGPYWEARSLTTGETGLIPSNYVAPVDSIQ
notes: C-terminal myc-hexahistidine tag; not shown: C-terminal myc-hexahistidine tag (pQE12 construct)
Consider B1, for which the “EC50 (nM) in internalization assay (cytotoxicity of Fynomer cross-linked with MMAF-conjugated 9E10 on KMS-11 cells)” value in the test with huFGFR3 on KMS-11 cells [1] is 2.5 nM. Further, the binding result with huD2-Fc is “no binding (tested: 200 nM final Fynomer concentration)”; with huD1-Fc, “no binding (tested: 200 nM final Fynomer concentration)”; in the test with muFGFR3c-His [3], “binds”; with huD1-D2-Fc [4], “binds”. In the test with huFGFR3 on KMS-11 cells [2], this molecule gave an EC50 of 2.2 nM.

B2: FF44L65B7 (designed binder)
chain: GVTLFVALYDYEVYGPTPMLSFHKGEKFQILRRGSGPYWEARSLTTGETGLIPSNYVAPVDSIQ
notes: as for B1
B2: the “EC50 (nM) in internalization assay (cytotoxicity of Fynomer cross-linked with MMAF-conjugated 9E10 on KMS-11 cells)” value with huFGFR3 on KMS-11 cells [1] is 1.8 nM. Further, the binding result with huD2-Fc is “no binding (tested: 200 nM final Fynomer concentration)”; in the test with huD1-Fc, “no binding (tested: 200 nM final Fynomer concentration)”; with muFGFR3c-His [3], “binds”; with huD1-D2-Fc [4] it was “binds”. In addition, the EC50 in the test with huFGFR3 on KMS-11 cells [2] is 0.6 nM.

B3: FF44L65G7 (designed binder)
chain: GVTLFVALYDYEVYGPTPMLSFHKGEKFQILRGGDGPYWEARSLTTGETGLIPSNYVAPVDSIQ
notes: as for B1
In the case of B3, in the test with huFGFR3 on KMS-11 cells [1], the “EC50 (nM) in internalization assay (cytotoxicity of Fynomer cross-linked with MMAF-conjugated 9E10 on KMS-11 cells)” value was 2.6 nM. The binding result with huD2-Fc is recorded as “no binding (tested: 200 nM final Fynomer concentration)”; in the test with huD1-Fc, “no binding (tested: 200 nM final Fynomer concentration)”; with muFGFR3c-His [3], “binds”; with huD1-D2-Fc [4], “binds”. This molecule came in with an EC50 with huFGFR3 on KMS-11 cells [2] of 4.2 nM.

B4: FF2L4C3 (designed binder)
chain: GVTLFVALYDYEVYGPTPMLSFHKGEKFQILNSSEGPYWEARSLTTGETGLIPSNYVAPVDSIQ
notes: Expressed in E. coli with a C-terminal myc-hexahistidine tag; captured or cross-linked through anti-myc antibody 9E10 in the assays; also called parental Fynomer FF2L4C3; not shown: C-terminal myc-hexahistidine tag (pQE12 construct)
Regarding B4, in the test with huFGFR3 on KMS-11 cells [1], the “EC50 (nM) in internalization assay (cytotoxicity of Fynomer cross-linked with MMAF-conjugated 9E10 on KMS-11 cells)” value is 28.5 nM and 21 nM and 26.4 nM. Besides, the binding result is “no binding (tested: 200 nM final Fynomer concentration)” in the test with huD2-Fc, “no binding (tested: 200 nM final Fynomer concentration)” in the test with huD1-Fc, “binds” with muFGFR3c-His [3] and “binds” with huD1-D2-Fc [4]. This molecule also showed a 50% effective concentration (EC50) with huFGFR3 on KMS-11 cells [2] of 5.9 nM.

B5: FF43L65D5 (designed binder)
chain: GVTLFVALYDYEVYGPTPMLSFHKGEKFQILRKGKGPYWEARSLATGETGLIPSNYVAPVDSIQ
notes: as for B1
Turning to B5, in the test with huFGFR3 on KMS-11 cells [1], the “EC50 (nM) in internalization assay (cytotoxicity of Fynomer cross-linked with MMAF-conjugated 9E10 on KMS-11 cells)” value was determined as 0.8 nM. The binding result is given as “no binding (tested: 200 nM final Fynomer concentration)” in the test with huD2-Fc, “no binding (tested: 200 nM final Fynomer concentration)” with huD1-Fc, “binds” with muFGFR3c-His [3] and “binds” with huD1-D2-Fc [4]. In the test with huFGFR3 on KMS-11 cells [2], this molecule had a concentration for a half-maximal effect (EC50) of 1.2 nM.

B6: FF48L66G7 (designed binder)
chain: GVTLFVALYDYEVYGPTPMLSFHKGEKFQILKGGSGPYWEARSLTTGETGLIPSNYVAPVDSIQ
notes: as for B1
For B6, the “EC50 (nM) in internalization assay (cytotoxicity of Fynomer cross-linked with MMAF-conjugated 9E10 on KMS-11 cells)” value with huFGFR3 on KMS-11 cells [1] worked out at 2.4 nM. For the same molecule, the binding result with huD2-Fc is given as “no binding (tested: 200 nM final Fynomer concentration)”; with huD1-Fc, “no binding (tested: 200 nM final Fynomer concentration)”; in the test with muFGFR3c-His [3] it was “binds”; with huD1-D2-Fc [4], “binds”. Further, the EC50 with huFGFR3 on KMS-11 cells [2] came to 2.3 nM.

B7: FF40L54A5 (designed binder)
chain: GVTLFVALYDYEVMSTTALSFHKGEKFQILSQSPHGQYWEARSLTTGETGWIPSNYVAPVDSIQ
notes: also called alternative Fynomer; not shown: C-terminal myc-hexahistidine tag as for the screened Fynomers; not restated for this Fynomer
B7: the binding result with huD1-D2-Fc [5] and in the test with muFGFR3c-His [6] was “binds” in each case. For the same molecule, it took 6.6 nM to reach a half-maximal effect in the test with huFGFR3 on KMS-11 cells [7] (EC50). The “EC50 (nM) in internalization assay” value with huFGFR3 on KMS-11 cells [8] was determined as 4.7 nM.
